Reference: article PMC4336329 (PLoS ONE, 2015)
Hit rate of the full screen: of about 310,000 compounds, about 2,200 (0.71%) showed an effect of 50% or more. Effects have a minus sign here. This is one part of the list.

target: human ether-à-go-go-related gene (hERG) potassium channel (human, UniProt Q12809); assay: primary screen, population patch clamp on CHO cells stably expressing hERG
Sequence (Q12809 whole entry, looked up): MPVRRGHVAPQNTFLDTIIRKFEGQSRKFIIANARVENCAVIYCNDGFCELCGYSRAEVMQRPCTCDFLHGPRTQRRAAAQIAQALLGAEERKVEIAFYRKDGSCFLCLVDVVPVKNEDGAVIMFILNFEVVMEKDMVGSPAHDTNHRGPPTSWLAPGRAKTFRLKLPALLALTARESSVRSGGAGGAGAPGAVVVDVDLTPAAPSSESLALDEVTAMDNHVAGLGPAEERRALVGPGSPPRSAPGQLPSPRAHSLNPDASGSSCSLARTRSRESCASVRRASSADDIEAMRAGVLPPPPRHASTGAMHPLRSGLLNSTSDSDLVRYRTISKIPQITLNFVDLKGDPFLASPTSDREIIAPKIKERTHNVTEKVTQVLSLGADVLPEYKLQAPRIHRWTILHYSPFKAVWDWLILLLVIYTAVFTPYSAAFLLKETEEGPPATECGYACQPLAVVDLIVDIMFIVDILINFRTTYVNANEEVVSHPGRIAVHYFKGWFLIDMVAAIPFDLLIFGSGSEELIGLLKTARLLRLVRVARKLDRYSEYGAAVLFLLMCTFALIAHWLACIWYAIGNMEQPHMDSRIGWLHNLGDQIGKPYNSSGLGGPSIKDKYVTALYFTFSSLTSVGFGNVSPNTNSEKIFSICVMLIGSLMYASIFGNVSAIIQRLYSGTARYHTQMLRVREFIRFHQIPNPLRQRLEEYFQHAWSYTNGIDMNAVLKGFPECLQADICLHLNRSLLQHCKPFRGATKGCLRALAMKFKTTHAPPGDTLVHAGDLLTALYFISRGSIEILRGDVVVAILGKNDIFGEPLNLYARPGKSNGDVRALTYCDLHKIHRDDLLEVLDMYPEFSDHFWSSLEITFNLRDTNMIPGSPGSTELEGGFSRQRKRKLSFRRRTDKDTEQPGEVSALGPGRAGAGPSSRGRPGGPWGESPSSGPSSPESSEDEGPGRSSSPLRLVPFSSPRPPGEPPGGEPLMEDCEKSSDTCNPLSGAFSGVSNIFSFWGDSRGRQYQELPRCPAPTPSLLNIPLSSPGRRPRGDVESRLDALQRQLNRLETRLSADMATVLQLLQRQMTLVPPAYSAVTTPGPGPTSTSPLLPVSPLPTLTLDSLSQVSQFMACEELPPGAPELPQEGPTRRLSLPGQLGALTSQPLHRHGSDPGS

Compound | hERG current change (%, negative = inhibition) at 1uM [%]
C=CCN(CC=C)S(=O)(=O)c1ccc(C(=O)Nc2nnc(COC)o2)cc1 | 14.2
O=C1c2ccccc2C(=O)N1CCc1nc(-c2ccncc2)no1 | 4.33
CCc1c(C)nc2ncnn2c1N1CCC(C(=O)NCc2cccc(OC)c2)CC1 | -24.1
Cn1c(C(O)c2ccc3c(c2)OCO3)nc2ccccc21 (stereo not shown) | 5.33
Oc1ccc(C=Nc2ccc3ncccc3c2)c(O)c1 | 5.21
CCOC(=O)CNC(=O)N1CCCC(C(=O)c2ccccc2SC)C1 (stereo not shown) | 8.47
Cc1cc(-c2nn(-c3ccccc3F)cc2CN2CCCC(O)C2)c(C)s1 (stereo not shown) | 0.993
O=C(COCc1nc2ccccc2c(=O)[nH]1)NCC1CCCCC1 | -11.9
Cn1nnnc1Sc1ncnc2scc(-c3ccc(C(F)(F)F)cc3)c12 | 16.9
Nc1ccc(-c2nc3ccccc3[nH]2)cc1 | 1.55
C=CCNC(=O)/C(C#N)=C/c1c(N(Cc2ccccc2)Cc2ccccc2)nc2ccccn2c1=O | 6.51
CC(NC(=S)N1CCN(c2ccccc2)CC1)c1ccccc1 (stereo not shown) | 8.9
Cc1cccc(Cn2c(SCC(=O)Nc3ccccc3)nc3c2c(=O)[nH]c(=O)n3C)c1 | 3.88
CCOC(=O)C(=Cc1cn(C)c2ccc(S(=O)(=O)N(C)C)cc12)C(=O)OCC | 9.35
Cc1ccc(S(=O)(=O)Nc2c(O)ccc3ccccc23)cc1 | 7.7
O=C(N/N=C/c1c(Nc2cccc(C(F)(F)F)c2)nc2ccccn2c1=O)c1ccccc1[N+](=O)[O-] | 8.51
COc1ccc(C2=NN(C(=O)CCC(=O)O)C(c3ccc(OC)cc3)C2)cc1 (stereo not shown) | 11.2
O=C(Cc1cccc(C(F)(F)F)c1)OCC(=O)N1CCN(S(=O)(=O)c2ccc(Cl)cc2)CC1 | -2.72
CCOc1ccccc1C1CC(=O)Nc2cc(C)c(C)cc21 (stereo not shown) | -12.8
CCOc1ccc(CCNC(=O)CCc2nc3ccccc3[nH]2)cc1OCC | 10.7
C=CCOc1c(Br)cc(CNn2c(C)n[nH]c2=S)cc1OCC | 12.9
Br.COc1ccc(-c2nc3n(c2Br)CCC3)cc1 | -3.59

Compound | hERG current change (%, negative = inhibition) at 1uM [%]
COCCn1c(=O)[nH]c2cc(C(=O)Nc3nnc(C)s3)ccc21 | 6.88
CCCNC(=S)NCc1ccc(Cl)cc1 | 1.33
Cc1cc(OC(=O)c2cc(Cl)nc3ccccc23)ccc1Cl | 9.26
Cc1cc2sc(NC(=O)c3ccco3)nc2cc1Cl | 15
C=CCOc1ccc(C2C(C(=O)c3ccc(C)o3)=C(O)C(=O)N2Cc2cccnc2)cc1 (stereo not shown) | 13.3
COc1ccc(CCNC(=O)CCc2cc(OC)c(OC)c(OC)c2)cc1OC | 9.89
COc1ccc(NC(=O)c2cc(N3C(=O)C4C5CCC(C5)C4C3=O)ccc2Cl)c(OC)c1 (stereo not shown) | 9.88
O=C(COC(=O)c1cccc([N+](=O)[O-])c1)c1ccc(OCc2ccccc2)cc1 | 13.4
Cc1ccc(Cl)cc1NC(=S)N(Cc1cccnc1)Cc1ccccc1Cl | 8.98
Cc1ccc(S(=O)(=O)N(CC(=O)N(C(C)C)C(C)C)C(=O)N2CCN(C)CC2)cc1 | 15.1
O=C1C(NS(=O)(=O)c2cccs2)=C(N2CCOCC2)C(=O)c2ccccc21 | 7.19
CCN(CC)CCCN1C=C2C(=O)C(C)(OC(=O)CCC(=O)OC)C(=O)C(Br)=C2C=C1c1ccc(OC)cc1 (stereo not shown) | 10.3
CC(C)n1c(SCC(=O)Nc2nncs2)nnc1C1CC1 | 10.2
CCCCNc1c(N)n(CCCC)c(=O)[nH]c1=O | 0.0826
Cc1cc(C)c2c(=O)[nH]c(SCC(=O)c3ccc(C)c(C)c3)nc2n1 | -4.96
COc1ccc(/C=C/C(=O)Nc2cccc(S(=O)(=O)NC3=NCCCCC3)c2)cc1 | -3.48
Cc1cccc(NC(=O)c2ccc3c(c2)C(=O)N(c2ccccn2)C3=O)c1C | 10.6
C[C@@H]1CC=C[C@H]2[C@H]1C(=O)N(Cc1ccccc1)[C@H]2c1ccc(-c2ccc(N(C)C)cc2)cc1F | 8.33
S=C(NCC1CCCO1)Nc1ccccc1Cl (stereo not shown) | 9.9
COc1ccc(C(=O)Cn2ccsc2=NC(C)=O)cc1 | 7.84
N#C/C(=C\c1ccccc1)C(=O)NC(=O)Oc1ccccc1 | 13.6
